Reference: PubChem BioAssay (NCATS)
“And” between values parts separate entries of the source, which are not always exact repeats. Identical values can stand only once. This list was built around the results that the source calls inconclusive (neither active nor inactive); the mix of calls is not that of the screen. Where the call is inconclusive, the potency comes from a doubtful curve fit. More than one record can exist for a structure, and the calls need not agree. The source made the active and inactive calls. Calls come from the whole dose curve; as a rule, active = well fitted curve in the direction sought with a large enough effect; inconclusive = small, poorly fitted or top-dose-only effect, or another doubt; inactive = no such curve, though single readings can be large; an effect the other way counts as inactive or inconclusive.

Tests used:
[1] = Viability qHTS for spleen associated tyrosine kinase inhibitor (SYKi) naive MV4-11 cells (AID 1963823); details: MV4-11 AML viability, CellTiter-Glo luminescence, 72 h; viability (% of control): at 45 µM (top of the series); note: nearly all actives have a fitted effect of over 40% in size
Method in brief: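 In this viability screen, compounds acted on SYK inhibitor naive MV4-11 cells for three days (72 hr, 37 C). Remaining viable cells were measured by CellTiter-Glo luminescence following a 10 min room-temperature development.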

[2] = Quantitative highthroughput screen to assess conditional lethalithy of NOMO1 cells grown in RPMI1640 with untreated serum (RPMI+s) (AID 1963876); details: NOMO1 AML cells in RPMI+serum, CellTiter-Glo viability, 48 h; viability: at 45.8 µM (top of the series); note: nearly all actives have a fitted effect of over 35% in size;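 for Viability: 100% = DMSO wells and 0% = empty wells without cells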
Method in brief: (§1)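 Each medium arm—HPLM with 10% dialyzed FBS, or RPMI1640 with 5 mM glucose and 10% untreated or dialyzed FBS—was screened against an 11-point, 3-fold compound titration for 48 h at 37 °C, with CellTiter-Glo luminescence as endpoint.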

[3] = Quantitative highthroughput screen to assess conditional lethalithy of NOMO1 cells grown in Human Plasma-Like Medium with dialyzed fetal bovine serum (HPLM+ds) (AID 1963878); details: NOMO1 AML cells in HPLM+ds, CellTiter-Glo viability, 48 h; viability: at 45.8 µM (top of the series); note: nearly all actives have a fitted effect of over 35% in size;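 for Viability: 100% = DMSO wells and 0% = empty wells on each plate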
Method in brief: as §1

[4] = Quantitative highthroughput screen to assess conditional lethalithy of P12 Ichikawa cells grown in Human Plasma-Like Medium with dialyzed fetal bovine serum (HPLM+ds) (AID 1963879); details: Potency: viability; note: nearly all actives have a fitted effect of over 35% in size
Method in brief: as §1

[5] = Quantitative highthroughput screen to assess conditional lethalithy of P12 Ichikawa cells grown in RPMI1640 with dialyzed fetal bovine serum (RPMI+ds) (AID 1963880); details: Potency: P12-Ichikawa viability; note: nearly all actives have a fitted effect of over 35% in size;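 for Viability: 100% = DMSO wells and 0% = empty wells on each plate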
Method in brief: as §1

[6] = Quantitative highthroughput screen to assess conditional lethalithy of P12 Ichikawa cells grown in RPMI1640 with untreated serum (RPMI+s) (AID 1963881); details: Potency: viability; note: nearly all actives have a fitted effect of over 35% in size;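 for Viability: 100% = DMSO wells and 0% = empty wells without cells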
Method in brief: as §1

[7] = Quantitative highthroughput screen to assess conditional lethalithy of SEM cells grown in Human Plasma-Like Medium with dialyzed fetal bovine serum (HPLM+ds) (AID 1963882); note: nearly all actives have a fitted effect of over 35% in size
Method in brief: as §1

[8] = Cellular viability qHTS for adrenocortical cancer (ACC) cell line SW-13 (AID 1963989); details: SW-13 ACC cells viability, CellTiter-Glo, 48 h; activity (max response): stronger effect = lower value; note: nearly all actives have a fitted effect of over 65% in size;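 for activity (max response): cells grown in serum-free medium with ITS supplement; % is set by controls: 0 for no effect and ±100 for the full control effect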
Method in brief: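 Luminescent ATP read-out (CellTiter-Glo, 20 min at room temperature) measured metabolically competent SW-13 cells after 48 h compound treatment. Final concentrations spanned up to 46 uM; bortezomib served as positive control.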

[9] = Cellular viability qHTS for adrenocortical cancer (ACC) cell line NCI-H295R (AID 1963990); details: CellTiter-Glo ATP luminescence, 48 h; activity change, negative = viability loss: at 46.1 µM (top of the series); note: nearly all actives have a fitted effect of over 60% in size;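 for activity change, negative = viability loss: 0% = DMSO only wells and -100% = full killing with cytotoxic reference compound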
Method in brief: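 IC50 and maximal efficacy derive from four-parameter logistic modelling of titration curves, with reads scaled between DMSO-only wells (0%) and doxorubicin hydrochloride (100% inhibition). Compounds spanned up to 46 uM over 48 h.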

[10] = Quantitative highthroughput screen to assess conditional lethalithy of SEM cells grown in RPMI1640 with unreated serum (RPMI+s) (AID 1963883); details: SEM B-ALL cells, CellTiter-Glo viability, 48 h; viability: at 45.8 µM (top of the series); note: nearly all actives have a fitted effect of over 35% in size;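 for Viability: 100% = DMSO wells and 0% = empty wells without cells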
Method in brief: as §1

[11] = Quantitative highthroughput screen to assess conditional lethalithy of SEM cells grown in RPMI1640 with dialyzed fetal bovine serum (RPMI+ds) (AID 1963884); details: SEM B-ALL cells, RPMI+dialyzed FBS, CellTiter-Glo viability, 48 h; viability: at 45.8 µM (top of the series); note: nearly all actives have a fitted effect of over 35% in size;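 for Viability: 100% = DMSO control wells and 0% = empty wells without cells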
Method in brief: as §1
Potency is the fitted concentration of half-maximal effect; tags give direction and shape of the fitted curve.

Structure (SMILES): Cn1c(=O)n(-c2ccc(C(C)(C)C#N)cc2)c2c3cc(-c4cnc5ccccc5c4)ccc3ncc21
- Potency [1]: inconclusive: 130 nM [cytotoxic, full curve] and active: 27 nM
- Potency [2]: inconclusive: 1.18 µM [cytotoxic, full curve]
- Potency [3]: inconclusive: 0.372 µM [cytotoxic, full curve]
- Potency [4]: active: 1.05 µM
- Potency [5]: active: 1.66 µM
- Potency [6]: active: 2.09 µM
- Potency [7]: active: 0.235 µM
- Potency [8]: inconclusive: 0.134 µM [cytotoxic, full curve]
- Potency [9]: active: 0.0751 µM

Structure (SMILES): N=C(N=C(N)N)N1CCOCC1
- Potency [1]: inactive
- Potency [2]: inactive
- Potency [4]: inactive
- Potency [5]: inactive
- Potency [6]: inactive
- Potency [7]: inactive
- Potency [10]: inactive
- Potency [11]: inactive

Structure (SMILES): CC(=O)Oc1ccccc1C(=O)O
- Potency [1]: inactive
- Potency [2]: inactive
- Potency [3]: inactive
- Potency [7]: inactive
- Potency [10]: inactive
- activity (max response) [8]: inactive: 9.69% and inactive: -6.24%

Structure (SMILES): Cc1nn(C)c(COc2ccc(N3CCN(S(=O)(=O)N(C)C)CC3)cc2)c1-c1cccc2c(CCCOc3cccc4ccccc34)c(C(=O)O)n(CCN3CCOCC3)c12
- Potency [1]: inactive
- Potency [2]: inconclusive: 2.95 µM [cytotoxic, full curve, poor fit]
- Potency [3]: inconclusive: 2.09 µM [cytotoxic, full curve]
- Potency [4]: inconclusive: 3.31 µM [cytotoxic, full curve]
- Potency [5]: inconclusive: 23.4 µM [cytotoxic, single point]
- Potency [6]: inconclusive: 33.1 µM [cytotoxic, single point]
- Potency [7]: inconclusive: 37.1 µM [cytotoxic, single point]
- Potency [10]: inconclusive: 1.17 µM [cytotoxic, full curve, poor fit]
- Potency [11]: inconclusive: 6.6 µM [cytotoxic, partial curve, poor fit]
- activity (max response) [8]: inactive: -16.3%
- Potency [9]: inactive

Structure (SMILES): CCCCOc1ccc(C(=O)Nc2ccc(F)cc2F)cc1
- Potency [1]: inactive
- Potency [2]: inactive
- Potency [3]: inconclusive: 37.2 µM [cytotoxic, single point]
- Potency [6]: inactive
- Potency [10]: inconclusive: 1.66 µM [rising, partial curve, poor fit]
- Potency [9]: inconclusive: 35.5 µM [cytotoxic, single point]

Structure (SMILES): CCCCc1oc2ccc(NS(C)(=O)=O)cc2c1C(=O)c1ccc(OCCCN(CCCC)CCCC)cc1
- Potency [1]: active: 6.68 µM and active: 2.59 µM and active: 6.61 µM
- Potency [2]: active: 1.18 µM
- Potency [3]: inconclusive: 1.87 µM [cytotoxic, full curve]
- Potency [4]: active: 8.33 µM
- Potency [5]: active: 9.35 µM
- Potency [11]: inconclusive: 33.2 µM [cytotoxic, single point]
- Potency [8]: active: 11.6 µM and active: 3.98 µM

Structure (SMILES): C=CC(=O)Nc1cccc(Oc2nc(Nc3ccc(N4CCN(C)CC4)cc3)ncc2Cl)c1
- Potency [1]: inconclusive: 263 nM [cytotoxic, full curve]
- Potency [2]: inconclusive: 2.64 µM [cytotoxic, full curve, poor fit]
- Potency [3]: inactive
- Potency [4]: inconclusive: 6.62 µM [cytotoxic, full curve]
- Potency [5]: inconclusive: 5.26 µM [cytotoxic, full curve]
- Potency [6]: inconclusive: 2.35 µM [cytotoxic, full curve]
- Potency [7]: active: 2.35 µM
- Potency [9]: active: 2.51 µM

Structure (SMILES): COc1cc(C(C)C)c2c(c1)S(=O)(=O)N(COc1cc(=O)n3cccc(OCCN4CCCCC4)c3n1)C2=O
- Potency [1]: active: 20900 nM
- Potency [2]: inactive
- Potency [3]: inconclusive: 13.2 µM [cytotoxic, partial curve, poor fit]
- Potency [5]: inconclusive: 37.2 µM [cytotoxic, single point]
- Potency [6]: inactive
- Potency [10]: inactive
- Potency [11]: inactive
- Potency [8]: inconclusive: 28.2 µM [cytotoxic, single point]
- Potency [9]: active: 17.8 µM

Structure (SMILES): Clc1ccc(C(Cn2ccnc2)OCc2c(Cl)cccc2Cl)c(Cl)c1 (stereo not drawn)
- Potency [1]: active: 16.8 µM and active: 8.33 µM
- Potency [2]: inactive
- Potency [3]: inactive
- Potency [5]: inconclusive: 20.9 µM [cytotoxic, single point]
- Potency [6]: inconclusive: 20.9 µM [cytotoxic, single point]
- Potency [8]: inconclusive: 16.4 µM [cytotoxic, single point] and inconclusive: 28.2 µM [cytotoxic, single point]
- Potency [9]: inconclusive: 23.1 µM [cytotoxic, partial curve, poor fit]

Structure (SMILES): NC(=O)c1ccc2nc(-c3ccc(Oc4ccc(Cl)cc4)cc3)[nH]c2c1
- Potency [1]: inconclusive: 8200 nM [cytotoxic, partial curve]
- Potency [2]: inactive
- Potency [3]: inconclusive: 0.469 µM [cytotoxic, partial curve, poor fit]
- Potency [4]: inactive
- Potency [6]: inconclusive: 7.43 µM [cytotoxic, single point]
- Potency [10]: inconclusive: 18.7 µM [cytotoxic, partial curve, poor fit]
- Potency [11]: inconclusive: 20.9 µM [cytotoxic, partial curve, poor fit]
- Potency [8]: active: 28.2 µM

Structure (SMILES): O=C(O)CCc1ccc(NCc2cccc(Oc3ccccc3)c2)cc1
- Potency [1]: inconclusive: 13000 nM [cytotoxic, partial curve, poor fit]
- Potency [2]: inactive
- Potency [3]: inactive
- Potency [4]: inactive
- Potency [6]: inactive
- Potency [7]: inconclusive: 0.0019 µM [rising, full curve]
- activity (max response) [8]: inactive: -8.89%
- Potency [9]: inactive

Structure (SMILES): N#Cc1c(NC(=O)c2cccc3ccccc23)sc2c1CCCC2
- Potency [1]: active: 116 nM
- Potency [2]: active: 0.935 µM
- Potency [3]: inconclusive: 0.662 µM [cytotoxic, full curve]
- Potency [5]: inconclusive: 0.743 µM [cytotoxic, full curve]
- Potency [6]: active: 0.662 µM
- Potency [7]: active: 0.469 µM
- Potency [8]: active: 0.282 µM

Structure (SMILES): COc1cccc2nc(-c3cccs3)nc(NN3C(=O)C=C(C)C3=O)c12
- Potency [1]: inconclusive: 186 nM [cytotoxic, full curve]
- Potency [2]: active: 1.48 µM
- Potency [3]: active: 0.469 µM
- Potency [4]: active: 2.09 µM
- Potency [5]: active: 2.96 µM
- Potency [10]: active: 0.935 µM
- Potency [8]: active: 11.2 µM

Structure (SMILES): Cc1cn(CCN2CCN(c3ccccc3-c3cc(C#N)cc(C(=O)NCCCN4CCCC4)c3)CC2)c2ccccc12
- Potency [1]: inconclusive: 2910 nM [cytotoxic, full curve]
- Potency [2]: inconclusive: 10.5 µM [cytotoxic, full curve]
- Potency [3]: active: 8.31 µM
- Potency [5]: active: 7.41 µM
- Potency [6]: active: 8.31 µM
- Potency [11]: inconclusive: 9.33 µM [cytotoxic, full curve]

Structure (SMILES): O=C(Nc1ncc(-c2cc(C(F)F)nn2-c2c(Cl)cccc2Cl)s1)C1CC1
- Potency [1]: inconclusive: 332 nM [cytotoxic, full curve]
- Potency [2]: inconclusive: 2.35 µM [cytotoxic, full curve]
- Potency [3]: inconclusive: 1.87 µM [cytotoxic, full curve]
- Potency [4]: active: 0.935 µM
- Potency [7]: active: 1.32 µM
- Potency [10]: active: 1.18 µM
- Potency [9]: inconclusive: 0.251 µM [cytotoxic, full curve, poor fit]

Structure (SMILES): C[C@@H](NCCCc1cccc(C(F)(F)F)c1)c1cccc2ccccc12
- Potency [1]: active: 10.6 µM and inconclusive: 6.61 µM [cytotoxic, full curve]
- Potency [2]: inactive
- Potency [3]: inactive
- Potency [4]: inactive
- Potency [5]: inactive
- Potency [7]: inactive
- Potency [8]: active: 20.6 µM and active: 25.1 µM

Structure (SMILES): COc1ccc(F)c(F)c1C(=O)c1cnc(NC2CCN(S(C)(=O)=O)CC2)nc1N
- Potency [1]: inconclusive: 662 nM [cytotoxic, full curve]
- Potency [2]: active: 4.69 µM
- Potency [3]: active: 4.18 µM
- Potency [6]: active: 11.8 µM
- Potency [8]: active: 3.55 µM

Structure (SMILES): O=C(O)c1ccc(-c2c[nH]c3ncc(-c4ccccc4)cc23)cc1C1CCCC1
- Potency [1]: inconclusive: 517 nM [cytotoxic, full curve] and active: 1.18 µM
- Potency [2]: inactive
- Potency [3]: inactive
- Potency [4]: inconclusive: 8.33 µM [cytotoxic, full curve, poor fit]
- Potency [6]: inconclusive: 11.8 µM [cytotoxic, single point]
- Potency [7]: inconclusive: 5.26 µM [cytotoxic, full curve]
- Potency [11]: inconclusive: 4.18 µM [cytotoxic, full curve]
- Potency [8]: inconclusive: 25.1 µM [cytotoxic, partial curve, poor fit]

Structure (SMILES): CCCNCC(O)COc1ccccc1C(=O)CCc1ccccc1 (stereo not drawn)
- Potency [1]: inconclusive: 23.7 µM [cytotoxic, partial curve] and inconclusive: 18.6 µM [cytotoxic, partial curve]
- Potency [2]: inconclusive: 0.0012 µM [rising, full curve]
- Potency [3]: inactive
- Potency [10]: inactive
- Potency [9]: inconclusive: 29.1 µM [cytotoxic, single point] and inconclusive: 35.5 µM [cytotoxic, single point]

Structure (SMILES): CC(=O)N1CCN(c2ccc(OC[C@H]3CO[C@](Cn4ccnc4)(c4ccc(Cl)cc4Cl)O3)cc2)CC1
- Potency [1]: inconclusive: 5250 nM [cytotoxic, full curve, poor fit]
- Potency [2]: inactive
- Potency [4]: inconclusive: 20.9 µM [cytotoxic, single point]
- Potency [5]: inconclusive: 37.2 µM [cytotoxic, partial curve, poor fit]
- Potency [6]: inconclusive: 26.4 µM [cytotoxic, single point]
- Potency [7]: inconclusive: 1.87 µM [cytotoxic, partial curve, poor fit]
- Potency [10]: inconclusive: 1.87 µM [cytotoxic, full curve, poor fit]
- Potency [11]: inconclusive: 0.526 µM [cytotoxic, full curve, poor fit]
- Potency [9]: inconclusive: 28.2 µM [cytotoxic, partial curve, poor fit]
